Test results taken from PubChem BioAssay (NCATS).
Values joined by “and” are separate entries in the source; they are usually repeats but may differ in a detail not shown here. Identical values can stand only once. This list was built around the results that the source calls inconclusive (neither active nor inactive); the mix of calls is not that of the screen. Potencies of inconclusive entries are doubtful fits and often do not repeat. Active and inactive are the calls of the source. The call rests on the fitted dose curve; in most records, active means well fitted cell-killing curve with a large enough effect; inconclusive means small, poorly fitted or top-dose-only effect, or effect the other way; inactive means no such curve, though single readings can be large or run the other way.

Experiment: Viability qHTS for spleen associated tyrosine kinase inhibitor (SYKi) naive MV4-11 cells (AID 1963823); further: nearly all actives have a fitted effect of over 40% in size
Details: MV4-11 AML viability, CellTiter-Glo luminescence, 72 h; series mostly up to 45 µM
Method in brief: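 Cells: MV4-11, SYK inhibitor naive, 500 per well. Treatment: library compounds, 72 hr, 37 C, 5% CO2. Read-out: CellTiter-Glo luminescence after 10 min RT.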
Potency means the concentration at half of the fitted maximal effect; tags describe the fitted curve by direction and shape.

Compound	Potency
CC(C)C(Br)C(=O)NC(N)=O (stereo unspecified)	inactive
C/C=C(\C)C(=O)O[C@@H]1[C@@H](C)[C@]2(O)C3C=C(C)C(=O)[C@@]3(O)CC(CO)=C[C@H]2C2C(C)(C)[C@@]21OC(=O)C(C)CC (stereo partly specified)	inconclusive: 0.02 µM [cytotoxic, full curve]
CCc1[nH]c2ccc(OC)cc2c1CCN(C)C	active: 10.3 µM
C1CN2CCC1CC2	inactive
CCCCOC(=O)c1ccnc2cc(C(OCCN3CCCCC3)c3ccccc3Cl)sc12 (stereo unspecified)	inconclusive: 25.9 µM [cytotoxic, single point]
C/C=C(\C)C(O)C(C)/C=C(C)/C=C/C/C(C)=C/Cc1nc(OC)c(OC)c(O[C@@H]2O[C@@H](C)[C@H](O)[C@@H](O)[C@H]2O)c1C (stereo partly specified)	active: 0.1 µM
O=C(O)Cc1ccccc1	inconclusive: 29.9 µM [cytotoxic, single point]
Oc1cc(Cl)ccc1Oc1ccc(Cl)cc1Cl	active: 19.7 µM and inconclusive: 16.8 µM [cytotoxic, partial curve]
CC(=O)OC[C@]12C[C@H](OC(C)=O)C(C)=C[C@H]1O[C@@H]1[C@H](O)[C@@H](O)[C@@]2(C)[C@]12CO2	inactive
CCOC(=O)C1(CCc2ccccc2)CCN(Cc2ccc(NC(C)=O)cc2)CC1	inconclusive: 20.6 µM [cytotoxic, partial curve]
COc1ccc(CC2C(=O)NC(C)C(=O)N(C)C3Cc4ccc(cc4)Oc4cc(ccc4OC4OC(CO)C(O)C(O)C4O)CC(C(=O)NC(C)C(=O)NC(CCC(=O)O)C(=O)N2C)N(C)C3=O)cc1 (stereo unspecified)	inconclusive: 0.551 µM [cytotoxic, full curve]
